According to US11344574B2, “Fluoro substituted porphyrin compounds, pharmaceutical compositions comprising the same, and methods of preparing and using the same” (Duke University, priority 2017, dated 2022):

Assays:
PC3 cells = test: Clonogenic survival of PC3 cells with MnP alone or with radiation and ascorbate; format: cell-based
Description: Aggressive prostate tumor PC-3 cells were treated overnight with PBS, MnTE-2-PyP^5+ (Mn1), or MnTFE-2-PyP^5+ (Mn3) using doses of 0.1 μM, 0.5 μM, and 1 μM. […] Each sample was serially diluted, and seeded into 6-well plates at 500 cells/well in three technical replicates. The cells were allowed to grow for 11 days then fixed with 70% EtOH and stained in 0.5% crystal violet and 25% methanol. Colonies containing 50 or more cells were counted and reported as the surviving fraction of cells seeded, normalized to plating efficiency of untreated cells at the same density. These experiments were repeated in triplicate and the mean and SEM were reported.
FIG. 3 depicts the results from an examination of the effectiveness of MnTFE-2-PyP^5+ (Mn3, FIG. 1, Formula II) in killing the radiation-resistant prostate cancer cell line (PC3) compared with its non-fluorinated analog, MnTE-2-PyP^5+ (Mn1, FIG. 1)). […] Fluoro porphyrins distribute less in vivo than do non-fluoro analogs (FIG. 6) but seem to have kinetic advantage in producing larger therapeutic effects.

[1] = Levels of Mn porphyrins in tumor, muscle and liver of the sc flank 4T1 mouse study (LCMS/MS); settings: 2 mg/kg
Mouse toxicity = format: in vivo; settings: mouse, in vivo
[2] = Ability of MnP to catalyze ascorbate oxidation, initial rates assessed spectrally; settings: compared with non-fluorinated MnP; listed as MnTFE-2-PyP^5+
[3] = Maximal tolerable dose (MTD) studies; design: species or system rats; settings: rat, in vivo, ip; intraperitoneal
Description: The dose we identified as entirely safe was then given for 2 weeks. […] A dose above 0.5 mg/kg of MnTF3Pen-2-PyP^5+ seems to impose some toxicity expressed as hypotonia and reluctance to ambulate. We have thus decided to continue with 0.5 mg/kg which appears as safe non-toxic MTD dose for multiple dosing.

| Molecule | cytotoxicity towards radiation-resistant prostate cancer cell line (PC3 cells) | levels in tumor, muscle and liver (in words) [1] | toxicity compared with BMX-001 (Mouse toxicity) | catalysis of ascorbate oxidation (in words) [2] | MTD at 2 weeks [3] [mg/kg] |
| --- | --- | --- | --- | --- | --- |
| CC[n+]1ccccc1-c1c2nc(c(-c3cccc[n+]3CC)c3ccc([n-]3)c(-c3cccc[n+]3CC)c3nc(c(-c4cccc[n+]4CC)c4ccc1[n-]4)C=C3)C=C2.[Mn+3] [Mn1, MnTE-2-PyP^5+, reference compound] | cytotoxicity to tumor cells | highest accumulation in tumor |  |  |  |
| FCC[n+]1ccccc1C1=C2C=CC3=[N+]2[Mn]24[n]5c1ccc5C(c1cccc[n+]1CCF)=C1C=CC(=[N+]12)C(c1cccc[n+]1CCF)=c1ccc([n]14)=C3c1cccc[n+]1CCF [Mn3, Mn(III) 5,10,15,20-tetra(2-fluoroethylpyridinium-2-yl)porphinato pentachloride] | cytotoxicity to tumor cells | lowest level in tumor | less toxic | twice a higher rate constant for ascorbate oxidation |  |
| O=C1O[C@H]([C@@H](O)CO)C(O)=C1O [ascorbate, reference compound] |  |  |  |  | 1000 |
| Mn(III) ortho N-butoxyethylpyridylporphyrin [Mn2, reference compound] |  | at higher levels |  |  |  |
